# Some of the results follow.
# B1: Epa10 (protein)
# chain: MNEKIFRYLTLLFLFELARSLPVEDKLNIKKVFEKRAVDFTPFAHYPRPEGCSSPPNSVSVGLHMNLYNYPYLYVKPSTKGMFTNDTNSDADGETDGDSAGGIEGRAGQCWNPEYQDPNFPRFGYKQYGEFGASDNVNGDISWDHNEFTEGCKPVLAALPPGYNYPDEITFSNFTMVLSGYFKPKTSGVYKFELKADDFILFNFGAKNAFECCNREESIDNFGPYVAYAMWPNQADQELEVYLFEDSYYPLRLFYNNRDYHSKFKIGFYPPGQTTITFDFDGYLFMLDDTGNECRDSIRYRTVCDDKVVDDTTYSTRYSTSMVPGGGSDVITIYYIRMKCEEEDCLGQWDPINNVCYSPDDCADDGGYWNGQMCDQSCKLEGGIVNPDTGDCDKSCIESGGFLDENGNCDTTCRDDGGMLVEGQCDYQCKEAGGILVGDHCDTTCVDSGGKLNEDGTCDHSCRDQGGQLDENGECDTSCKDSGGMLIEGECDTSCKDEGGQLDDNNECINHCKDQGGIIDENGNCDTSCKDSGGKLDESGACDTSCRDDGGIIDENGNCNTTCRDDGGIIVGDHCDTSCRDAGGILIEDHCDTTCRDSGGKLNEDGTCDHSCRDQGGQLDENGKCDYSCKNGGGKLDEDGNCDMSCKENGGKLDENGDCDLSCKEDGGKLDGNGDCDYSCKEEGGVIDESGNCNTTCKDSGGQIIDGECNYGCIEVGGVVIDGECDTSCIDSGGILDGDGNCDRSCIESGGVLEDGACNTTCRDSGGQLNVDGTCDTSCRDDGGMLVEGQCDYQCKEAGGILEDGECVFPPTSSSTSETSSTTDQSSLQSDDSSMESSSTPMDSSTIESSSSEIITSESESESVPIASSSSEVMTSESESESIPILTSSSEIPIASSSSEIPVASSSSEIIIPESESESVPVASSSSEIPIASSSSEIPVASSSSEIPVASSSSEIIIPESESESIPIESTSSEAVSSRSESDSSYPTPTPTTTTITTWPNPIQPTTSNSSPIVSSSTETPGIAESSSRISDLESSRRTSILGDDRTRTRTTITSTITEDGQIITITTTVTGFVPEPTGETEGNGSDDENPENPIENNTDENEFLDPEFTDDIPDDPAGPEDNGNGPVNPEQGNDNDPVNLEDSGNNGAVNPEQAPVNDEDNGGNDPVNPEQDNNNGPANPGQDSTNGSGNSDQIDNNPPTPEENAGDGNSNGNDPADPSRRTSILGDERTRASPGGTSQPTGANGNVNGNSPGANVNGGGTGNSNNNNNNNNNNNNGNAPNGGDGSNGDANQGPSRRTSLLGDERTRAGQAAPTGGSSPDNGIAGDTSNNGGAIVSQQVDDGGAGSPRRTSILGDVRSRTTLNGEVLNFEGSGVRRAVAGNLALPLMMVGLVFNL
# Key:
# Test in all cases: glycan array binding signal (z-score within array); higher = stronger binding
# Details in all cases: glycan notation: IUPAC condensed, linker removed
# GlcNAc(b1-3)Man = target: GlcNAc(b1-3)Man
# Procedure, shortened: (§1)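 From the Consortium for Functional Glycomics database, 3228 arrays were curated, keeping only those whose protein sequence was available. Binding is given as a within-array Z-score averaged across arrays sharing a protein sequence and across linkers. Negative Z-scores can be read as non-binding.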
# [1] = target: GlcNAc(b1-3)[GlcNAc(b1-4)][GlcNAc(b1-6)]GlcNAc
# Procedure, shortened: as §1
# [2] = target: GlcNAc(b1-3)[GlcNAc(b1-6)]Gal(b1-4)GlcNAc
# Procedure, shortened: as §1
# [3] = target: GlcNAc(b1-3)[GlcNAc(b1-6)]GalNAc
# Procedure, shortened: as §1
# [4] = target: GlcNAc(b1-4)Gal(b1-4)GlcNAc
# Procedure, shortened: as §1
# GlcNAc(b1-4)GlcNAc = target: GlcNAc(b1-4)GlcNAc
# Procedure, shortened: as §1
# [5] = target: GlcNAc(b1-4)GlcNAc(b1-4)GlcNAc
# Procedure, shortened: as §1
# [6] = target: GlcNAc(b1-4)GlcNAc(b1-4)GlcNAc(b1-4)GlcNAc(b1-4)GlcNAc
# Procedure, shortened: as §1
# [7] = target: GlcNAc(b1-4)GlcNAc(b1-4)GlcNAc(b1-4)GlcNAc(b1-4)GlcNAc(b1-4)GlcNAc
# Procedure, shortened: as §1
# [8] = target: GlcNAc(b1-4)[GlcNAc(b1-6)]GalNAc
# Procedure, shortened: as §1
# [9] = target: GlcNAc(b1-6)Gal(b1-4)GlcNAc
# Procedure, shortened: as §1
# GlcNAc(b1-6)GalNAc = target: GlcNAc(b1-6)GalNAc
# Procedure, shortened: as §1
# [10] = target: GlcNAc6S(b1-3)Gal(b1-4)GlcNAc
# Procedure, shortened: as §1
# Kdn(a2-3)Gal(b1-3)GalNAc = target: Kdn(a2-3)Gal(b1-3)GalNAc
# Procedure, shortened: as §1
# Kdn(a2-3)Gal(b1-3)GlcNAc = target: Kdn(a2-3)Gal(b1-3)GlcNAc
# Procedure, shortened: as §1
# Kdn(a2-3)Gal(b1-4)Glc = target: Kdn(a2-3)Gal(b1-4)Glc
# Procedure, shortened: as §1
# Kdn(a2-3)Gal(b1-4)GlcNAc = target: Kdn(a2-3)Gal(b1-4)GlcNAc
# Procedure, shortened: as §1
# [11] = target: Kdn(a2-3)Gal(b1-4)[Fuc(a1-3)]GlcNAc
# Procedure, shortened: as §1
# Kdn(a2-6)Gal(b1-4)GlcNAc = target: Kdn(a2-6)Gal(b1-4)GlcNAc
# Procedure, shortened: as §1
# [12] = target: Man(a1-2)Man(a1-2)Man(a1-3)Man
# Procedure, shortened: as §1
# [13] = target: Man(a1-2)Man(a1-2)Man(a1-6)[Man(a1-3)]Man
# Procedure, shortened: as §1
# Man(a1-2)Man(a1-3)Man = target: Man(a1-2)Man(a1-3)Man
# Procedure, shortened: as §1
# [14] = target: Man(a1-2)Man(a1-3)[Man(a1-2)Man(a1-6)]Man
# Procedure, shortened: as §1
binder,measurement,setting,value
B1,glycan array binding signal (z-score),GlcNAc(b1-3)Man,-0.198
same,glycan array binding signal (z-score),[1],-0.265
same,glycan array binding signal (z-score),[2],-0.314
same,glycan array binding signal (z-score),[3],-0.259
same,glycan array binding signal (z-score),[4],-0.281
same,glycan array binding signal (z-score),GlcNAc(b1-4)GlcNAc,-0.26
same,glycan array binding signal (z-score),[5],-0.29
same,glycan array binding signal (z-score),[6],0.45
same,glycan array binding signal (z-score),[7],1.1
same,glycan array binding signal (z-score),[8],-0.297
same,glycan array binding signal (z-score),[9],-0.08
same,glycan array binding signal (z-score),GlcNAc(b1-6)GalNAc,-0.237
same,glycan array binding signal (z-score),[10],0.049
same,glycan array binding signal (z-score),Kdn(a2-3)Gal(b1-3)GalNAc,-0.21
same,glycan array binding signal (z-score),Kdn(a2-3)Gal(b1-3)GlcNAc,-0.209
same,glycan array binding signal (z-score),Kdn(a2-3)Gal(b1-4)Glc,-0.207
same,glycan array binding signal (z-score),Kdn(a2-3)Gal(b1-4)GlcNAc,-0.139
same,glycan array binding signal (z-score),[11],-0.168
same,glycan array binding signal (z-score),Kdn(a2-6)Gal(b1-4)GlcNAc,-0.238
same,glycan array binding signal (z-score),[12],-0.264
same,glycan array binding signal (z-score),[13],-0.264
same,glycan array binding signal (z-score),Man(a1-2)Man(a1-3)Man,-0.299
same,glycan array binding signal (z-score),[14],-0.247

# From the supplement of paper PMC8728848
